Assay results taken from PubChem BioAssay AID463173 (ICCB-Longwood Screening Facility, Harvard Medical School, 2010).
Among all 52,000 compounds or so, about 4,300 (8.3%) were called active. Rule as the data show it: active = survival mostly below about 52% (no sharp cut-off); inactive = mostly above about 56%. The list shows a part of the results.

Tested on: DeltatarO mutant
Test: S. aureus survival, RN4220 and DeltatarO strains – OD600, teichoic acid synthesis inhibitors, primary screen (AID 463173)
Settings: S. aureus RN4220 wild type/DeltatarO growth, OD600, 18 h, active compounds read low, screened at 18.75 µg/mL (by protocol)

SMILES	survival
Cc1nc2ncnn2c(C)c1CCC(=O)N1CCN(c2ccccc2)CC1	inactive: 91%
CCc1ccccc1NC(=O)Cn1c(=O)n(-c2ccc(C)cc2)c(=O)c2c1c1cc(C)ccc1n2C	inactive: 90%
COc1ccc(OC)c(NC(=O)c2cc3cc(C)ccc3n2C)c1	inactive: 51%
Cc1ccccc1NC(=O)N1CCc2c(sc3c2CCCC3)C1c1ccccc1 (configuration not stated)	inactive: 102%
COc1ccc(NC(=O)c2ccc3nc(CCc4ccccc4)oc3c2)c(OC)c1	inactive: 117%
O=C(NCCc1ccccc1)c1ccc(Cn2c(SCc3cccc(F)c3)nc3cccnc32)cc1	inactive: 70%
CCc1ccc(-n2c(=O)c3sc4ccccc4c3n(CC(=O)NC3CCCCC3)c2=O)cc1	inactive: 97%
CCC(C)C(=O)Nc1ccc(C(C)CC)cc1 (configuration not stated)	inactive: 100%
CC(C)CCNC(=O)CSc1nc2ccccc2nc1Cc1ccccc1	inactive: 82%
Cc1ccc(NC(=O)Cn2nc(-c3ccncc3)ccc2=O)cc1Cl	inactive: 120%
Cc1cc(NC(=O)CCS(=O)(=O)c2cc(Br)cc3c2N(C(=O)C2CC2)CC3)ccc1Br	inactive: 83%
COc1ccc(-c2c3c(=O)n(C)c(=O)n(C)c3c3c(-c4cccc(C)c4)nc4ccccc4n23)cc1	inactive: 83%
OCCNc1nc2ccccc2n1CCOc1ccccc1	inactive: 68%
C=CCn1c(-c2ccccc2)n[nH]c1=S	inactive: 76%
CCOc1ccc(NC(=O)Cn2cc(C(=O)c3ccc(CC)cc3)c(=O)c3cc(OC)c(OC)cc32)cc1	inactive: 98%
COc1ccc(S(=O)(=O)NCCCO)cc1-c1nnc2c3ccccc3c(C)nn12	inactive: 124%
CCc1ccc(CCC(=O)Nc2ccc(S(N)(=O)=O)cc2)o1	inactive: 78%
COc1ccc2cc3cc(C(=O)N4CCN(c5cccc(Cl)c5)CC4)sc3nc2c1	inactive: 101%
Cc1ccc(Nc2nc(C)cs2)cc1	inactive: 82%
Cc1cc(Oc2c(C(F)(F)F)oc3c(CN4CCC(C)CC4)c(O)ccc3c2=O)cc(C)c1Cl	inactive: 70%
C=CCNc1sc(C(=O)C(C)(C)C)c(N)c1C#N	inactive: 99%
Cc1cccc(-n2ccnc2SCC(=O)Nc2ccc(F)cc2F)c1C	inactive: 78%
Cc1ccc(C)c(CN2CCC(CNC(=O)Nc3ccc(Br)cc3F)CC2)c1	inactive: 81%

SMILES	survival
Cc1ccc(C)c(CNC(=O)c2ccc3c(c2)nc2n3CCCCC2)c1	inactive: 91%
Cc1ccc(S(=O)(=O)NC(=O)CC#N)cc1	inactive: 95%
COc1cc2c(cc1OC)C(COc1ccc3c(C)cc(=O)oc3c1)N(C(=O)C(C)C)CC2 (configuration not stated)	inactive: 82%
CCOC(=O)c1nc(Nc2ccc(C(C)=O)cc2)c2ccccc2n1	inactive: 49%
CN(C(=O)c1ccc(NC(=O)c2ccco2)cc1)C1CCCCC1	inactive: 61%
O=C(Nc1c(C(=O)Nc2ccc(F)cc2)oc2ccccc12)c1cc2ccccc2o1	active: 47%
COc1ccc(Cn2c(=O)c3cccnc3n(CC(=O)Nc3ccc(C)c(F)c3)c2=O)cc1	inactive: 104%
O=C(c1ccc(CSc2nc3ccncc3n2Cc2ccc(F)cc2)cc1)N1CCCCCC1	inactive: 71%
Cc1ccc(-c2nc3c4ccccc4[nH]c(=O)n3n2)cc1	inactive: 60%
CCN(C(=O)/C=C/c1cc(OC)c(OC)c(OC)c1)C1CCCCC1	inactive: 89%
CCc1nc2ccc(C(=O)N3CCN(c4cccc(C)c4C)CC3)cc2nc1CC	inactive: 76%
O=C1CC(c2cccc(O)c2)c2c(nc(SCc3ccccc3F)[nH]c2=O)N1 (configuration not stated)	inactive: 106%
CCOc1ccc(C(=O)N(Cc2sccc2C)C2CCS(=O)(=O)C2)cc1 (configuration not stated)	inactive: 77%
CCOc1ccc(-c2cc(OC(=O)c3ccc(OC)cc3)c3c(C)oc(C)c3c(=O)c2)cc1	inactive: 65%
COc1cc2nc(C3CCC3)n(NC(=O)COc3ccccc3)c(=O)c2cc1OC	inactive: 92%
C[C@H](NC(=O)OC(C)(C)C)c1nnc(SCc2c(F)cccc2Cl)o1	inactive: 72%
CCOC(=O)c1ccc(N2N=C(C(F)(F)F)CC2=O)cc1	inactive: 47%
CCc1ccc(NC(=O)Cn2nc3c4ccccc4n(Cc4ccccc4)cc-3c2=O)cc1	inactive: 83%
CCC(=O)Nc1nc(-c2ccc(C)c(C)c2)cs1	inactive: 78%
O=C(Nc1ccc(OC(F)(F)F)cc1)c1nc2ccccc2nc1N1CCCCC1	inactive: 90%
COc1cccc(NC(=O)CSc2nc3cc(OC)c(OC)cc3c3nc(-c4ccccc4)nn23)c1	inactive: 76%
CCn1c2ccccc2c2cc(CN3CCN(Cc4ccccc4Cl)CC3)ccc21	active: -1%
COc1cc(OC)c(NC2(c3ccccc3)C(=O)c3ccccc3C2=O)cc1Cl	inactive: 70%

SMILES	survival
CCc1ccccc1NC(=O)Nc1ccc2c(c1)N(CC)C(=O)c1ccccc1S2	active: 41%
CN(C)C(=O)CN1CCC(N2CCCCC2)CC1	inactive: 96%
CCOc1ccccc1CNC(=O)c1cc2n(n1)CCCN(Cc1ccc(C)cc1)C2=O	inactive: 81%
CCOc1ccc(NC(=O)CSc2nc(C)c(C(=O)Nc3ccccc3)c(-c3ccc(Cl)cc3)c2C#N)cc1	inactive: 80%
CCc1cccc(-n2c(C)nc3c(cnn3-c3ccc(C)c(C)c3)c2=O)c1	active: -1%
Cc1cc(C)c2nc(N(Cc3cccnc3)C(=O)c3ccc(S(=O)(=O)N(C)C)cc3)sc2c1	inactive: 90%
CC1=C(C(=O)Nc2ccc(C)cc2C)C(C(C)C)n2nc(SCc3ccccc3Cl)nc2N1 (configuration not stated)	inactive: 61%
CCOC(=O)n1c(SCC)nc2ccccc21	inactive: 83%
Cc1sc2ncn(CC(=O)N3CCN(c4ccc(F)cc4)CC3)c(=O)c2c1S(=O)(=O)N1CCCCC1	inactive: 81%
Cc1ccc(S(=O)(=O)c2cn(CC(=O)Nc3ccc4c(c3)OCO4)c3ccccc3c2=O)cc1	inactive: 60%
Cc1cccc2sc(N(CCCN(C)C)C(=O)c3ccc(Cl)s3)nc12	inactive: 73%
Cc1ccc(Nc2nc3c(S(=O)(=O)c4ccccc4)nnn3c3ccsc23)c(C)c1	inactive: 66%
Cc1cccc(NC(=O)Cn2nnc(C(=O)Nc3ccc(F)c(Cl)c3)c2N)c1	inactive: 101%
COc1cc(C2C(C(=O)OCC(C)C)=C(C)N=C3SCCC(=O)N32)ccc1OCc1ccccc1 (configuration not stated)	active: 46%
COc1cccc(NC(=O)CSc2nc(=O)n(Cc3ccco3)c3c2CCC3)c1	inactive: 90%
COc1ccc2[nH]c(=O)c(CN(CCCN3CCOCC3)C(=O)Nc3ccccc3)cc2c1	inactive: 105%
CCCCNc1ncnc2c1nnn2C	inactive: 78%
CCN1CCN(c2oc(-c3ccc(COc4ccc(C)cc4)o3)nc2C#N)CC1	active: 38%
CCCCNC(=O)c1ccc2c(c1)NC(=O)C(CS(=O)(=O)Cc1cccc(C)c1)N2 (configuration not stated)	inactive: 94%
COc1ccc2oc(-c3cccc(NC(=O)c4ccc(C#N)cc4F)c3)nc2c1	inactive: 79%
COc1cccc(NC(=O)Cn2c(=O)n(-c3ccc(Cl)cc3)c(=O)c3oc4ccccc4c32)c1	inactive: 56%
O=C(NC1CCCCC1)N1CC=C(c2ccccc2)CC1	inactive: 114%
COc1cc(C(=O)Nc2ccc3[nH]c(=O)sc3c2)cc(OC)c1OC	inactive: 82%

SMILES	survival
CC(C)C(=O)N1c2ncnn2C2(CCCCC2)[C@@H]2CCCC[C@@H]21	inactive: 101%
CC1=C(C(=O)Nc2cccnc2)C(c2cccc(F)c2)n2nc(SCc3ccccc3)nc2N1 (configuration not stated)	inactive: 85%
CC(C)Cn1c(=O)c2sccc2n2c(CCCC(=O)NCCc3ccccc3)nnc12	inactive: 94%
COc1cccc(C(=O)NCC(=O)OCc2cc(=O)n3c(C)csc3n2)c1	inactive: 85%
CN1CCN(CC(=O)N2CCCC2=O)CC1	inactive: 108%
COc1ccc(C2CC(=O)N(Cc3ccc(F)cc3)c3ccccc3S2)cc1 (configuration not stated)	active: 28%
Cc1ccc(S(=O)(=O)N2CCN(Cc3noc(CCC(=O)N4CCCCC4)n3)CC2)c(C)c1	inactive: 89%
C[n+]1ccc(/C=C/c2ccc(N3CCCC3)o2)cc1	inactive: 99%
Oc1ccccc1C1OC2CCCCC2C2=CCCCC21 (configuration not stated)	active: 34%
Cn1c(C(=O)NCc2ccccc2F)cc2oc3ccccc3c21	inactive: 55%
CCN1CCN(c2cc3c(cc2F)c(=O)c(S(=O)(=O)c2ccc(OC)cc2)cn3CC)CC1	inactive: 84%
Cc1c(C(=O)Nc2cccc(C(F)(F)F)c2)sc2nc3n(c(=O)c12)CCCC3	inactive: 69%
COc1cccc2sc(N(Cc3cccnc3)C(=O)Cc3ccccc3)nc12	inactive: 80%
O=C(c1ccco1)n1nc(-c2ccccc2)nc1NCc1ccc(F)cc1	inactive: 65%
Cc1nc2ccc(S(=O)(=O)CCC(=O)Nc3ccc(C)c(C)c3)cc2s1	inactive: 107%
CCN1C(=O)C2C(c3ccc(O)cc3)NC(CO)(C(=O)OC)C2C1=O (configuration not stated)	inactive: 82%
CCOC(=O)c1c(-c2ccccc2)csc1NC(=O)c1cc(-c2ccc(Br)cc2)on1	inactive: 57%
COCCCNC(=O)c1sc2nc3n(c(=O)c2c1C)CCC3	inactive: 91%
CCOc1ccc(CCNC(=O)CCc2c(C)nc3c(-c4ccccc4)c(C)nn3c2C)cc1OCC	inactive: 70%
C1CN(C(N2CCOCC2)N2CCOCC2)CCO1	inactive: 82%
Cc1nc(Nc2ccc(Cl)cc2)cc(-c2ccccc2)n1	active: -4%
CCOc1ccc(NC(=O)CC2C(=O)N(c3ccccc3)C(=O)N2C2CCCCC2)cc1 (configuration not stated)	inactive: 67%
COc1ccccc1CNC(=O)NCc1noc2ccc(C)cc12	inactive: 56%
